Test results published in the supplement of paper PMC3334620.
In all, about 33,000 sequences were measured (“E-score (-0.5 to 0.5)”: median about -0.043, highest 2% from about 0.37 on). Some of the results follow.

The sequences below were run against T1, Upc2 (UniProt Q12151) (assay: PBM E-score (8-mer binding enrichment) (E-score (-0.5 to 0.5)); higher = stronger / more preferred TF binding; most listed sequences are background and not binding sites). Details: protein concentration: 200 nM; construct: GST-full length.
T1 sequence: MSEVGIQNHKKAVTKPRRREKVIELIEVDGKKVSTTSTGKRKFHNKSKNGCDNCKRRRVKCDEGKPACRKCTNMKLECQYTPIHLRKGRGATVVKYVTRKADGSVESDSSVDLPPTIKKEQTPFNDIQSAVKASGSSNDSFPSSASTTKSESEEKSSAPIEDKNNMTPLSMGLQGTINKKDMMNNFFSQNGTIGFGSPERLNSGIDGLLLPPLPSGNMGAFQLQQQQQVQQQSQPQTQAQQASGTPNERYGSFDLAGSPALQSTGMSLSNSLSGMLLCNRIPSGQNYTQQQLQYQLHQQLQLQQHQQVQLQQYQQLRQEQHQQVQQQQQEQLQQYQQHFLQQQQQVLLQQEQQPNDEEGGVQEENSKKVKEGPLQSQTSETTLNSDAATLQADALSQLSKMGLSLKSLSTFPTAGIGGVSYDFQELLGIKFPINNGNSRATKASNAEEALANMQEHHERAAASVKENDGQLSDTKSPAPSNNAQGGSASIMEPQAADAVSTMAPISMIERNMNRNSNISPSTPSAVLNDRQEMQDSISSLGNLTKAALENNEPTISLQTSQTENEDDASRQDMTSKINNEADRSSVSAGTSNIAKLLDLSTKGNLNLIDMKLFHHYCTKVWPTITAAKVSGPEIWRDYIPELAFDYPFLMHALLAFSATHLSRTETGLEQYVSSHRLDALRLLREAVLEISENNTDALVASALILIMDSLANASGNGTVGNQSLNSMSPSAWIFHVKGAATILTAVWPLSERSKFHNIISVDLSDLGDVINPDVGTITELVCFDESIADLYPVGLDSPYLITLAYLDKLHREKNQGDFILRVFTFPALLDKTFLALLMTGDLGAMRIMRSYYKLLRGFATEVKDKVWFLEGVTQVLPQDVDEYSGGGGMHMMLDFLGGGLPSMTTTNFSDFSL
Outline: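 Detection of bound protein used fluorescent anti-GST, with scans normalised by masliner. The proteins were GST-tagged yeast transcription factors applied at about 100-200 nM to universal all-10-mer Agilent arrays made double-stranded by primer extension. Each ungapped eight-base word, pooled with its reverse complement, was scored with an E-score from the Universal PBM Analysis Suite.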

Row | Sequence | PBM E-score
1 | CCGGAAAG | -0.147
2 | GGCTAACC | -0.0479
3 | GCTCGTCA | 0.0569
4 | AAACTAAA | 0.112
5 | ACAGCTAC | -0.0575
6 | CTAATGTA | 0.0584
7 | GAAGAAAC | 0.0334
8 | CTCTGACC | -0.181
9 | CTTCTGTC | -0.124
10 | ACATGTAC | 0.12
11 | CGCATTTC | 0.0626
12 | CGGGAAAG | -0.0714
13 | ACGGTCAT | 0.122
14 | CCAAATCA | -0.0311
15 | GGACGTAA | 0.0273
16 | GGGAACTA | 0.0723
17 | CACGGAGC | -0.119
18 | ACCCCCGA | -0.158
19 | GCATACCA | 0.00545
20 | ACCCATGA | -0.237
21 | ACGGATGC | 0.189
22 | TGGATCAA | -0.162
23 | ATAGACCC | -0.0795
24 | CAGTCGAC | 0.0776
25 | AGTCTGTA | 0.196

Row | Sequence | PBM E-score
26 | GGCTCCAA | -0.185
27 | AGAGTGGC | -0.188
28 | GATGAAGA | -0.0943
29 | GAGCCCGC | 0.00594
30 | ATCGCATC | -0.00142
31 | CCAGCAGG | -0.145
32 | GTGCGGTA | 0.151
33 | CTTACTCA | -0.206
34 | AGCTCAAT | -0.126
35 | AGTAGAGC | -0.207
36 | TGTCCGAA | 0.113
37 | AGGTTGAG | -0.171
38 | ATAATGAC | -0.107
39 | CTGCGCCA | -0.117
40 | AACTTCGC | 0.155
41 | ACAGGAGC | -0.057
42 | AACCTCTA | -0.0646
43 | CTGTTTTC | -0.0151
44 | GTAAGGAC | -0.0992
45 | GTAACGGA | 0.208
46 | AAGAGCTT | -0.0155
47 | GTTTAAAC | 0.356
48 | ACAGGACG | -0.152
49 | AACTGGAG | -0.161
50 | AGGTCTGC | -0.144

Row | Sequence | PBM E-score
51 | ATAGAAAC | 0.0284
52 | AACGTATC | 0.142
53 | CCGGTACC | -0.196
54 | GAAGTGTA | -0.0563
55 | CCTCCGTC | -0.255
56 | AATACTAC | 0.143
57 | AGTAGACG | 0.0762
58 | ACGCTATC | 0.112
59 | CGTGTAAG | 0.129
60 | TATGACCA | 0.0212
61 | GATTCCAA | -0.0872
62 | GCGTGCCA | -0.128
63 | ATACTATC | 0.0165
64 | CCCAGGAC | -0.273
65 | AAGCACAC | -0.0833
66 | ATCCCGGC | 0.0725
67 | CTATCGGA | 0.0507
68 | CAGGCTGG | -0.0415
69 | CTAATCCC | -0.123
70 | AAACAGCA | 0.0181
71 | AACAAAGA | 0.0672
72 | CTGGAGTA | 0.00167
73 | CTGTGCGA | 0.217
74 | AAAGCGCG | -0.03
75 | CTAGACCC | -0.135

Row | Sequence | PBM E-score
76 | ATTTCCGA | 0.107
77 | TGTTTCAA | -0.0233
78 | GCAATATA | 0.00238
79 | AAGTCTGC | -0.16
80 | AGACTTCG | 0.13
81 | ACGCCTAA | 0.0663
82 | ACCCCCAA | -0.179
83 | CGTGAGTC | 0.0655
84 | GCTACGGA | 0.226
85 | CAACACGC | -0.142
86 | CGCCCATC | -0.157
87 | CGATCTAG | -0.0452
88 | ACTCCGAT | -0.279
89 | ATGGGCTC | -0.0478
90 | AGACCTTG | -0.186
91 | AAACCTCC | -0.176
92 | AGTTCTGC | 0.0833
93 | ACTAATAA | 0.0239
94 | CGCGTACG | 0.4
95 | ACCGGCTG | -0.293
96 | CAAGCTTC | -0.0224
97 | ACGGAACA | 0.159
98 | CCAATAAC | 0.00883
99 | CTTACTGC | -0.179
100 | GCGACGTA | 0.218

Row | Sequence | PBM E-score
101 | ACCGCGAA | 0.0233
102 | CATACCCC | -0.0287
103 | GTTATCAA | -0.0859
104 | ATCAGCGA | 0.0575
105 | CTTATGGA | -0.0859
106 | GGTCATAC | 0.148
107 | GCCCCTCA | -0.0083
108 | AACGTGAA | -6e-05
109 | CGACACGC | 0.125
110 | ATCGATCG | 0.136
111 | ATGATGGA | -0.15
112 | AATAGCTC | -0.144
113 | AATCCTAG | -0.0768
114 | GCCTTGAA | -0.189
115 | GCGGTTTA | -0.011
116 | ATGCGATA | 0.158
117 | ATGCGAGG | 0.295
118 | CCCGCAGA | -0.137
119 | AAAACCCC | -0.124
120 | TCTACACA | 0.0099
121 | TCCCCCCA | -0.408
122 | CAAATGAA | 0.19
123 | AGCCACGC | -0.0888
124 | AAGTTCCA | -0.151
125 | ATAGTTTG | -0.0286

Row | Sequence | PBM E-score
126 | CAAGGGCC | -0.237
127 | GAGGCTCC | -0.0334
128 | TAAAGTTA | 0.0564
129 | CCGCGACC | -0.248
130 | AAATTGCC | 0.105
131 | ATGGCTCC | -0.188
132 | CCCGGTCG | 0.0997
133 | AGCTAGAA | -0.197
134 | AGCTGAGA | -0.232
135 | GGACGACC | -0.212
136 | CAGCAACG | 0.18
137 | AAACGTTC | 0.205
138 | CTACCCCA | -0.159
139 | CTGATCTA | -0.0914
140 | AGCAGCGG | -0.0845
141 | ACCGCTCT | -0.249
142 | CATGAATC | -0.0543
143 | AATCGTAA | 0.368
144 | CCAGCATC | -0.219
145 | GAGACCGC | -0.222
146 | CGCTTGTC | 0.07
147 | GTGCTGTA | 0.0622
148 | AGGAGTGG | -0.22
149 | CACTAGGC | -0.255
150 | CACCAAAA | -0.0642

Row | Sequence | PBM E-score
151 | ACTACGGA | -0.114
152 | AACACTGC | -0.0369
153 | ATTCAAGC | 0.158
154 | TCTGGTCA | -0.222
155 | CAATCATA | -0.0431
156 | TAAGGGCA | -0.0577
157 | ATCGGTAG | -0.0524
158 | ACCAGGGC | -0.188
159 | GATAAAAC | 0.238
160 | TACCCGGA | 0.12
161 | CCGAGTCA | -0.0448
162 | CCAATGGC | -0.226
163 | AGTCAGCC | -0.0587
164 | GGAAGACA | -0.111
165 | AATACCAT | -0.0768
166 | TAGTCATA | 0.0321
167 | AAAAGGTA | 0.101
168 | ACTCCGAA | -0.125
169 | ACTATTAG | 0.0061
170 | CATGTAAA | -0.0744
171 | ATAAAGAA | 0.00049
172 | AACCAATC | 0.0951
173 | AAGCGAGC | 0.335
174 | TGGACCCA | -0.221
175 | GGACACCC | -0.233

Row | Sequence | PBM E-score
176 | GCAAGCGC | 0.102
177 | AAATGAGT | -0.0339
178 | ACGAAAGT | 0.304
179 | AACTTCAA | 0.0368
180 | ATAAAACC | 0.0496
181 | CTACGCGA | 0.261
182 | ATAAGAGA | 0.243
183 | GTGAAATA | 0.0114
184 | ATACATAG | -0.0133
185 | CATGACAG | -0.121
186 | GGACAACA | -0.0516
187 | ACCTTCGA | -0.0685
188 | ACACGACT | 0.194
189 | CATCGCAA | 0.0254
190 | GAACCTGA | -0.126
191 | CAGCTTAA | -0.0705
192 | GGAAAGTA | 0.0212
193 | CCCGTCAG | -0.302
194 | AACTGTGA | 0.0453
195 | ACCCCTCA | -0.117
196 | TCACGGGA | -0.0633
197 | AGATACAT | -0.172
198 | TGACAAAA | -0.0498
199 | TGCGCCCA | -0.183
200 | ATGCGATC | 0.213

Row | Sequence | PBM E-score
201 | CATTAATC | 0.0546
202 | GGAGGTCA | -0.319
203 | AGGACCAT | -0.0361
204 | GATCATAA | 0.121
205 | AAACATAC | 0.171
206 | AGTCCTAC | 0.0484
207 | TCGCGGCA | 0.00548
208 | CCTACGGC | -0.21
209 | CACGACTG | 0.0762
210 | ACCGTTGC | 0.0183
211 | CGAGCTAC | 0.0491
212 | TACGGTCA | 0.332
213 | AGGTTGCG | -0.156
214 | GAGGCGCA | -0.104
215 | AAGTGCGC | -0.134
216 | GTATAAAC | 0.4
217 | CATAAGAA | 0.154
218 | GGAGCCTA | -0.238
219 | CTAATAGC | -0.103
